Reference: patent US20160137740A1 (AstraZeneca / MedImmune, published 2016)

What was measured:
[1] = target: cyno/rhesus OX40 expressed on Jurkat NFκB-luciferase reporter clone B2 (cynomolgus/rhesus monkey); experiment: cell-based or functional assay
[2] = target: T1, Human TNFRSF1β (TNFR2) expressed on HEK293 cells (human, UniProt P20333 23-461); experiment: flow cytometry histogram, transiently transfected HEK293 cells, goat anti-human AlexaFluor 647 secondary [panel A]
T1 construct: whole, on cells; also called TNFRSF1B; CD120b
T1 sequence (looked up): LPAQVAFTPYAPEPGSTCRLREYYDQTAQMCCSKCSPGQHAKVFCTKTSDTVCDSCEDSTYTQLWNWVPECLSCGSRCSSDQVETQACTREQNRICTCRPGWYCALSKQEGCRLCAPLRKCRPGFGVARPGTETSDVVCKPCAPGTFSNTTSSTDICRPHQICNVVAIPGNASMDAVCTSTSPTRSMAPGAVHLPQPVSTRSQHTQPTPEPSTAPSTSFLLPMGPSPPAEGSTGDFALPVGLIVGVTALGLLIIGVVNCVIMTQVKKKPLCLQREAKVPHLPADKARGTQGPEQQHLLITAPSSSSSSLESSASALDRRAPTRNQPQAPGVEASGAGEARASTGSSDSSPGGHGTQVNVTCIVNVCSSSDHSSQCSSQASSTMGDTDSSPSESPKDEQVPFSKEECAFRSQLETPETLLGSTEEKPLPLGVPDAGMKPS
Excerpt: (§1) cDNA constructs capable of directing the expression of individual TNFRSF members, when transfected into mammalian cells, were obtained from Origene Technologies, Rockville, Md. These cDNA constructs were amplified and purified by the Protein Sciences group at MedImmune in Gaithersburg, Md. for use in transient transfections. […] Forty-eight hours post transfection, cells were removed from tissue culture plates by trypsinization. […] Cells were then suspended in cold FACS buffer (PBS+2% FBS) and plated into 96 well non-tissue culture-treated plates for binding studies with TNFRSF member-specific mAbs (Table 3-3) and OX40mAb24.
(§2) For binding of antibodies or OX40mAb24, HEK cells were pelleted, FACS buffer removed, and cells suspended in FACS buffer containing 2 μg/mL propidium iodide (PI) and either a fluorochrome-labeled mAb, specific for the transfected TNFRSF member, at a concentration recommended by the manufacturer or with OX40mAb24 at a concentration of 1 μg/mL. For binding controls, cells were separately incubated with fluorochrome-labeled isotype control antibodies. […] Thereafter, cells incubated with fluorochrome-labeled monoclonal antibodies were washed in cold FACS buffer and then binding events collected and analyzed by flow cytometry using an LSRII flow cytometer (BD Biosciences, San Jose, Calif.) and FlowJo software, as described in Section 3.2.3. […]

[3] = target: T2, Human TNFRSF16 (NGFR) expressed on HEK293 cells (human, UniProt P08138 29-427); experiment: as above
T2 construct: whole, on cells; also called NGF receptor
T2 sequence (looked up): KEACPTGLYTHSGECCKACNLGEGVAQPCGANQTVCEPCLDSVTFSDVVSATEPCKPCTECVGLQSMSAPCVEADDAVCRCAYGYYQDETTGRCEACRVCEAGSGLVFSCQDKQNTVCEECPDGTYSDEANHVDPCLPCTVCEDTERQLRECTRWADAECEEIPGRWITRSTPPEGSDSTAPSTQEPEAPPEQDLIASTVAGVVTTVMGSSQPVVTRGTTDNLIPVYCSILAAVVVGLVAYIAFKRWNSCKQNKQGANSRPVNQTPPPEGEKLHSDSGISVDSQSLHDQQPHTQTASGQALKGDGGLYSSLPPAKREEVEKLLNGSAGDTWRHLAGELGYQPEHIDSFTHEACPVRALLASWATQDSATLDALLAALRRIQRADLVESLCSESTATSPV
Excerpt: as §1, §2

[4] = target: T3, Rat OX40 (rat, UniProt P15725 20-271); experiment: flow cytometry on activated primary rat CD4+ T cells
T3 construct: whole, on cells; also called rat CD134
T3 sequence (looked up): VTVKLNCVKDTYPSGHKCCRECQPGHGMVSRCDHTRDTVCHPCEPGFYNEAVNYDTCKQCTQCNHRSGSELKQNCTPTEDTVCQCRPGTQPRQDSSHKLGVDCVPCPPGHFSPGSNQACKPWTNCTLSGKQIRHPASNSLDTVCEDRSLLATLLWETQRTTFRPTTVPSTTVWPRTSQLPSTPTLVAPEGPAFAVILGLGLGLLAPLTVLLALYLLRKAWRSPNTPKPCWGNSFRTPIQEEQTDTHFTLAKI
Method: Rat CD4⁺ T cells (1×10⁶ per mL complete medium) were cultured overnight in a T75 cell culture flask with 1 μg/mL concanavalin A (Con A) and 500 IU/mL IL-2, to activate T cells and induce OX40 expression, and incubated overnight. Activated CD4⁺ T cells were removed from the flask and 100,000 cells were transferred to each well of a non-tissue culture treated 96-well round-bottom plate for binding assays and washed with FACS buffer. Binding was performed with 10 μg/mL OX40mAb24, 9B12 or mouse anti-rat CD134, clone OX40 (positive control) antibody serially diluted 3-fold for a 10 point data curve in FACS buffer. For negative controls, 10 μg/mL R347 human IgG1 or mouse IgG1 clone MOPC-21 were serially diluted 6-fold for a 3 point data curve. 100 μL of OX40mAb24 control protein, 9B12 or clone OX40 antibody was added to CD4⁺ T cells in duplicate and incubated. Following primary incubation, cells were washed with 200 μL of 4° C. […] Following secondary antibody incubation, cells were processed for flow cytometry as described in Section 2.3.

B1: OX40mAb24 (antibody, human IgG1, kappa)
heavy: QVQLQESGPGLVKPSQTLSLTCAVYGGSFSSGYWNWIRKHPGKGLEYIGYISYNGITYHNPSLKSRITINRDTSKNQYSLQLNSVTPEDTAVYYCARYKYDYDGGHAMDYWGQGTLVTVSSASTKGPSVFPLAPSSKSTSGGTAALGCLVKDYFPEPVTVSWNSGALTSGVHTFPAVLQSSGLYSLSSVVTVPSSSLGTQTYICNVNHKPSNTKVDKRV[skipping human IgG1 Fc]
light: DIQMTQSPSSLSASVGDRVTITCRASQDISNYLNWYQQKPGKAPKLLIYYTSKLHSGVPSRFSGSGSGTDYTLTISSLQPEDFATYYCQQGSALPWTFGQGTKVEIKRTVAAPSVFIFPPSDEQLKSGTASVVCLLNNFYPREAKVQWKVDNALQSGNSQESVTEQDSKDSTYSLSSTLTLSKADYEKHKVYACEVTHQGLSSPVTKSFNRGEC
notes: Humanized from 9B12; human IgG1 kappa; also called humanized anti-human OX40 IgG1κ monoclonal antibody
- fold of EC50 in the cyno/rhesus 2-cell assay over human 2-cell assays with the Raji B-cell line [1]: 1.3 fold
- binding result [2]: no binding (tested: 1 µg/mL)
- binding result [3]: no binding (tested: 1 µg/mL)
- binding result [4]: no binding (tested: 10 µg/mL)
